According to paper PMC4336329 (PLoS ONE, 2015):
Hit rate of the full screen: of about 310,000 compounds, about 14,000 (4.5%) showed an effect of 50% or more. Effects have a minus sign here. Some of the results follow.

What follows are compounds tested against human ether-à-go-go-related gene (hERG) potassium channel (human, UniProt Q12809) (assay: primary screen, population patch clamp on CHO cells stably expressing hERG).
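Further: peak tail current of the secondary pulse compared with the same well before compound.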

human ether-à-go-go-related gene (hERG) potassium channel, sequence (Q12809 whole entry, looked up): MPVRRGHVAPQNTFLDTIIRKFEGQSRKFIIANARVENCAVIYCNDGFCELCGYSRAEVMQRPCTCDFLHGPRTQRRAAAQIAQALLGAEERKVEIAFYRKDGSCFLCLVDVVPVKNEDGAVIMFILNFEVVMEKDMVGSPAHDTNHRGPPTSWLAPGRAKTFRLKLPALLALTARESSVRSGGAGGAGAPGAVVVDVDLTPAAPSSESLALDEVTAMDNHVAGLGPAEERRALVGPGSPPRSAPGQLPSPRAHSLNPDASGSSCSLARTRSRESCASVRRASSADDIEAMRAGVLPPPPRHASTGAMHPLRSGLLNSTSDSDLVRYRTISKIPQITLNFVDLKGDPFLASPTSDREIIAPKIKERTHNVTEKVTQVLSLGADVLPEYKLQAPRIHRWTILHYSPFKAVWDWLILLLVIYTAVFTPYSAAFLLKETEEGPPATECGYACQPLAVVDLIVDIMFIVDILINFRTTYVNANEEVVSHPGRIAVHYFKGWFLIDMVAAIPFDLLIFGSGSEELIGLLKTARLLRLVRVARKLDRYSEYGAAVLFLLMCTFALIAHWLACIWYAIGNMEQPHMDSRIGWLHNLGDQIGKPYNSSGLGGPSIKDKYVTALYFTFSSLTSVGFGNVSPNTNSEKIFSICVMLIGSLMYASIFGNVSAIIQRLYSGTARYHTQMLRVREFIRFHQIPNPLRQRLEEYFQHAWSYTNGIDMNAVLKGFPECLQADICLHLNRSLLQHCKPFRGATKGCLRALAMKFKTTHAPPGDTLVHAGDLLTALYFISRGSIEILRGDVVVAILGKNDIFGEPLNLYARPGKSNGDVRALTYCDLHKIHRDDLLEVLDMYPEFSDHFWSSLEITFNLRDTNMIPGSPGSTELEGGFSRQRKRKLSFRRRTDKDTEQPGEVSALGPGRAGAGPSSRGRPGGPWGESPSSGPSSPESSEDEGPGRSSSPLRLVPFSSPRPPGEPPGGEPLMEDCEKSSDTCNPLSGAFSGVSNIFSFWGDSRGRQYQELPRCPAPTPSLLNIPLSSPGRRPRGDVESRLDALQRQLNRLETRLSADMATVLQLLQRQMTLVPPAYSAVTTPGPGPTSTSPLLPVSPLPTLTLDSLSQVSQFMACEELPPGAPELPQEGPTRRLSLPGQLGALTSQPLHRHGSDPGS

SMILES	hERG current change (%, negative = inhibition) at 10uM
Cc1cc(NC(=O)COC(=O)COc2ccc(Cl)cc2C)c([N+](=O)[O-])cc1C	4.42%
O=C(CSc1nnc(SCc2ccccc2)s1)N/N=C/C=C/c1ccccc1[N+](=O)[O-]	-3.87%
Clc1ccc(-c2nnc3n2CCCCS3)cc1	-4.8%
Cc1cc(NC(=O)CCC(=O)N(Cc2cccnc2)C(C(=O)NC(C)(C)C)c2ccccc2Cl)no1 (stereo not shown)	8.8%
COc1ccc(C(=O)Oc2c(CN3CCOCC3)cc(Cl)c3cccnc23)cc1	-23.9%
COc1cccc(/C=c2\sc3nc(-c4cccs4)nn3c2=O)c1OC	6.41%
CCCC(=O)Nc1ccc(C(=O)NNC(=O)c2cccs2)cc1	12.2%
O=C(Nc1nc(-c2cc(Cl)sc2Cl)cs1)c1cccs1	22%
O=C1N(Cc2ccccc2)c2ccccc2C12OCCO2	18.9%
O=C1[C@@H]2[C@H](C(=O)N1n1cnnc1)[C@H]1C=C[C@@H]2C1	11.5%
O=C1CCCc2nc(N3CCN(C(=O)c4ccco4)CC3)ncc21	3.75%
CC(C)(C)NC(=O)N1CCN(c2nc(-c3ccccc3)ns2)CC1	0.919%
COC(=O)CCCCCCCCC(O)CN1CCCCC1.Cl (stereo not shown)	8.53%
Cc1cc(C)c(S(=O)(=O)N2CCOC2CNC(=O)C(=O)NCc2ccco2)c(C)c1 (stereo not shown)	-8.68%
Cc1ccc(-c2csc3nc(C)n(N)c(=O)c23)o1	12.1%
O=C(COC(=O)CCc1ccc(S(=O)(=O)N2CCOCC2)cc1)NCc1ccccc1Cl	-38.5%
Cc1cc(C)c(C#N)c(SCCS(=O)(=O)Cc2ccc(Cl)cc2)n1	8.08%
CCn1cc(/C=C(\NC(=O)c2ccccc2OC)C(=O)NCCCn2ccnc2)c2ccccc21	-19.2%
Cc1nonc1NC(=O)CSc1ccc(-c2ccccc2)nn1	-30.3%
NNC(=O)CSc1c(-c2cccs2)[nH]c2ccccc12	7.58%
CCOc1ccc2[nH]c(=O)c(CN(CC3COCCO3)C(=O)c3ccco3)cc2c1 (stereo not shown)	-9.52%
CC(=O)N1c2ccc(S(=O)(=O)NCC3CCC(C(=O)N4CC(C)CC(C)C4)CC3)cc2CC1C (stereo not shown)	-14.8%
Cc1nn(C)cc1[C@@H]1C[C@H]2CN(Cc3cccc(Cl)c3)C(=O)[C@]23CCCN13	-36.8%
COCC1CCN(Cc2c(C(=O)N3CCN(C4CCCCC4)CC3)nc3ccccn23)C1 (stereo not shown)	3.86%
Cc1nc(NC(=O)CN(C)S(=O)(=O)c2ccc(Cl)cc2)sc1C	-4.08%
CSc1ccccc1NC(=O)c1noc(C)c1[N+](=O)[O-]	-3.27%
COc1ccccc1CCn1c(N)c(C#N)c2nc3ccccc3nc21	-6.3%
CCOc1ccc(NC(=O)CN(C)C(=O)c2ccccc2OCCOc2ccccc2)cc1OCC	-26.9%

SMILES	hERG current change (%, negative = inhibition) at 10uM
Cn1cc(C(=O)NC2C3CC4CC(C3)CC2C4)cn1 (stereo not shown)	15.7%
Cc1cc(NC(=O)CSc2nc3ccccc3c(=O)n2Cc2ccccc2)no1	6.67%
CCOC(=O)c1c(NC(=O)CCN2CCOCC2)sc2c1CC(C)(C)OC2	-34.4%
COc1ccc(C2CC(C(F)(F)F)n3ncc(C(=O)NCC4CCCO4)c3N2)cc1OC (stereo not shown)	3.34%
CC(=O)N1CCc2c(sc3c2c(=O)n(-c2ccccc2)c(=O)n3CC(=O)NCC2CCCO2)C1 (stereo not shown)	-3.4%
Cc1ccc(-c2cc(C(=O)N3CCc4ccccc4C3)[nH]n2)cc1C	9.83%
COc1cc(C(=O)Oc2cccc(/C=N/NC(=O)c3cc(C)[nH]n3)c2)cc(OC)c1OC	16.5%
COc1ccc(CC(=O)OCC(=O)NC2CCCCC2)cc1	-18.1%
CCOc1ccc(NC(=O)NNC(=O)COc2ccc3ccccc3c2)cc1	24.2%
COC(=O)Cn1c(O)c(N=NC(=O)OC)c2ccccc21	8.62%
COc1ccc(NC(=O)CCn2nc(C)cc2C)cc1	7.72%
Cn1c(=O)c(C(=O)NC2CCCCCCC2)c(O)c2ccccc21	1.85%
Cc1csc(NC(=O)CSc2nnc(-c3ccoc3C)n2C(C)c2ccccc2)n1 (stereo not shown)	-74.1%
Cc1ccc(NC(=O)c2c(Cl)nc3ccccn23)cc1	7%
O=C(CC1CCCC1)NNC(=O)c1ccc(F)cc1	6.27%
CCCOc1ccc(C(=O)CCC(=O)OCC(=O)Nc2ccc(Oc3ccccc3)cc2)cc1	-13.3%
Cc1cnc(C(=O)Nc2nnc(C3CC3)s2)cn1	1.12%
c1cc(-c2cn(C[C@H]3CC[C@@H]([C@@H]4CC[C@H](Cn5cc(-c6ccsc6)nn5)O4)O3)nn2)cs1	-75.5%
CC(C)(C)C(=O)Nc1ccc(N2CCN(c3ccc(C(F)(F)F)cn3)CC2)nc1	-4.78%
CC(=O)Nc1cccc(-c2csc(NCc3ccccc3)n2)c1.O=C(O)C(=O)O	-8.18%
Cc1cccc(-n2ncc3c(NCc4ccc5c(c4)OCO5)ncnc32)c1	6.07%
CCc1ccccc1NC(=S)NC1CC2CCC(C1)N2Cc1ccc(F)cc1 (stereo not shown)	-42%
COC(=O)c1ccccc1NC(=O)CSCC(=O)Nc1ccc(F)cc1	-18.1%
Cc1cc(NC(=O)Cn2c(=O)n(CCCCC(=O)NC3CCN(Cc4ccccc4)CC3)c(=O)c3ccccc32)n[nH]1	26.5%
O=C(CCS(=O)(=O)c1ccc(F)cc1)Nc1nnc(-c2ccco2)o1	15.8%
c1ccc(-n2ncc3c(NC4CCCCCC4)ncnc32)cc1	7.31%
CN(C)CC/C=C1\c2ccccc2Sc2ccc(Cl)cc21.Cl	-56.7%
